Experimental data as given in PubChem BioAssay AID488969 (Vanderbilt High Throughput Screening Facility, 2010).
Over roughly 110,000 compounds, “z-score” has its median near -0.1; the highest 2% begin near 2. Some of the results follow. Active and inactive are the calls of the source.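 How the source made its calls: active means z-score in the third read window above 3 or below -3; inactive means the rest.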

Target: Metabotropic glutamate receptor 8 (Rattus norvegicus) (UniProt P70579)
Assay: mGluR8 Gi/Go-coupled signaling modulation – cell-based, rat, thallium flux, HTS, primary screen (AID 488969)
Details: HEK293 rat mGluR8, GIRK (G protein-gated inwardly rectifying potassium channel) thallium flux, FluoZin2; at 10 µM; stronger effect = higher value; submaximal glutamate (EC20) added with thallium

UniProt P70579, sequence (P70579 whole entry, looked up): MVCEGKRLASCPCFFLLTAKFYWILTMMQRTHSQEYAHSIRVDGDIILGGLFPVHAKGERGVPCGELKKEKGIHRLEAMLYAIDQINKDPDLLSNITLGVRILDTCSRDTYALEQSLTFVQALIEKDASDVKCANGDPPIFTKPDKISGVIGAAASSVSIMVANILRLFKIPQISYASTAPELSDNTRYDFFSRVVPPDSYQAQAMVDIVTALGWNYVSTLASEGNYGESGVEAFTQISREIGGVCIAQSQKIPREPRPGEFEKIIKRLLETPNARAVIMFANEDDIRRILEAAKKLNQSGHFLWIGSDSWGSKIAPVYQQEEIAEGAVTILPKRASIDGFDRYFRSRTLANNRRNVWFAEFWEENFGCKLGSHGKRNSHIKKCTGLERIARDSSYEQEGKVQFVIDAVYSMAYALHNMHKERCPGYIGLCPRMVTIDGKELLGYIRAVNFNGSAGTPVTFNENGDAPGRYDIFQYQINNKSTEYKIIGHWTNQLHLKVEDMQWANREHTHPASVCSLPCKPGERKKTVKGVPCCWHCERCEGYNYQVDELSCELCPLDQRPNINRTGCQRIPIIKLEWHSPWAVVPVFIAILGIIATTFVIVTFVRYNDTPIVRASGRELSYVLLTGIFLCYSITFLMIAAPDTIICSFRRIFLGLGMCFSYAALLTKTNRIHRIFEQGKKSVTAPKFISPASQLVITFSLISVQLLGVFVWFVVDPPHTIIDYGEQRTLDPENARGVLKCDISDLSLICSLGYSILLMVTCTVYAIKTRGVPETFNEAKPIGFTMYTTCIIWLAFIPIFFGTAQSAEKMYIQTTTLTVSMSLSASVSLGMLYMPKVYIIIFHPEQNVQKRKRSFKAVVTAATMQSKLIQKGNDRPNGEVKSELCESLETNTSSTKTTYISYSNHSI

SMILES	z-score
O=C(C1CCN(S(=O)(=O)c2cnc[nH]2)CC1)N1CCn2c1nc1ccccc12	-0.128
O=C(CS(=O)(=O)c1cn(Cc2cccc(F)c2)c2ccccc12)N1CCCCC1	-0.211
CS(=O)(=O)N1CCN(c2ccccc2NC(=O)c2cccnc2)CC1	-0.215
CC(=Nc1ccccc1)C1=C(O)COC1=O	0.0875
O=C(NNC(=S)NC1CCCCC1)c1ccc2c(c1)OCO2	0.0724
O=C(c1ccc(Cn2cc([N+](=O)[O-])cn2)o1)N1N=C(C(F)F)CC1(O)C(F)F (centres undefined)	-0.151
Cc1ccccc1NC(=O)CSCCN1C(=O)c2ccccc2C1=O	-0.0122
Cc1ccc(N2C(=O)C3ON(c4ccccc4)C(c4ccncc4)C3C2=O)c(C)c1 (centres undefined)	0.0213
CCCCCCCCCCS(=O)(=O)N/N=C/c1ccc(O)cc1	-0.604
Cc1ccc(C(=O)NC(NCc2ccco2)C(Cl)(Cl)Cl)cc1 (centres undefined)	-0.17
Cn1c(-c2ccccc2O)cc2ccccc21	0.085
Cc1ccc(OCC(=O)OC2CCS(=O)(=O)C2)cc1 (centres undefined)	-0.764
COc1cccc(NC(=O)c2ccccc2-c2nc(-c3ccccc3)no2)c1	-0.435
Cc1cc(C)c(S(=O)(=O)N2CCC(C(=O)NCc3ccc(Cl)cc3Cl)CC2)c(C)c1	0.412
CC1CCCC(C)N1C(=O)CSc1nc(N)c(-c2ccccc2)c(=O)[nH]1 (centres undefined)	-0.0901
CCOC(=O)c1c(-c2ccc(C)o2)csc1NC(=O)CSc1nnc(C)s1	-1.11
CCCCc1cc(=O)oc2cc(C)c(CN3CCCC3)c(O)c12	-0.825
CC1CC(C)CN(S(=O)(=O)c2cccc(C(=O)OCCN3CCCC3=O)c2)C1 (centres undefined)	-0.00255
C=C(C)c1cccc(C(C)(C)NC(=O)N2CCOCC2)c1	0.22
Fc1cc(Br)ccc1NC(=S)NCCc1ccccc1	active: 7.09
CS(=O)(=O)N(CC(=O)N1CCN(Cc2ccc3c(c2)OCO3)CC1)Cc1ccc(Cl)cc1	0.174
COc1ccc(Cn2c(CCC(=O)NCc3ccco3)nc3cccnc32)cc1	0.0216
CCc1nc(N2CCN(C(=O)c3ccco3)CC2)c2oc3ccccc3c2n1	-0.615

SMILES	z-score
COc1ccccc1NS(=O)(=O)c1cccc(C(=O)N/N=C2\CC(=O)CC(C)(C)C2)c1	0.104
CCCCCCOC(=O)C1=C(C)NC(=O)NC1c1ccc(O)cc1 (centres undefined)	-0.0425
CCn1c(-c2ccccc2)csc1=Nc1ccc(S(=O)(=O)O)cc1	0.146
CCOc1cc(/C=C2/C(=N)N3OC(C)=CC3=NC2=O)ccc1OCCOc1ccccc1	0.106
C/C(=N\NC(=O)c1c(Cl)c(C)nn1C)c1cccc(NC(=O)COc2ccccc2)c1	-0.103
CCOC(=O)CSCC(=O)Nc1cc(C)ccc1C	0.0722
CC(C)NC(=O)c1nn(C)c2ccccc12	-0.161
CCN(CC)CCNC(=O)Cn1nc(Cc2cccnc2)c2ccccc2c1=O	0.0418
Cc1nc(NC2=NCN(CCc3ccccc3)CN2)nc2c(C)cccc12	0.814
CCN(CC)C(=O)Oc1ccc2c(=O)c(-c3ccc(OC)cc3)coc2c1	1.26
O=C(COc1cccnc1[N+](=O)[O-])Nc1ccccc1Sc1ccccc1	1.09
COc1cc(NC(=O)COC(=O)[C@@H]2CCCN2S(=O)(=O)c2ccc(Cl)cc2)cc(OC)c1OC	-0.518
COc1cc(NC(=O)c2ccccc2)c(OC)cc1NC(=O)CN1CCCCC1	-0.781
CCOc1ccc(OCc2cccc(C(=O)N3CCCC3)c2)cc1	-0.0798
C=CCNC(=O)/C(C#N)=C/c1c(N2CC(C)OC(C)C2)nc2ccccn2c1=O (centres undefined)	-0.188
CCN(CC)c1ccc(N=Cc2ccc([N+](=O)[O-])o2)cc1	-0.614
O=C(C1CCCN(Cc2ccncc2)C1)N1CCc2ccccc2C1 (centres undefined)	-0.287
CCC(C)(C)n1nnnc1C(c1cc2ccc(OC)cc2[nH]c1=O)N1CCCCC1 (centres undefined)	-1.09
Cc1cccc(Sc2c([N+](=O)[O-])ncn2C)c1	-0.369
O=C(CNC(=O)c1ccccc1)OC(C(=O)Nc1cc(C(F)(F)F)ccc1Cl)c1ccccc1 (centres undefined)	0.333
CCCCSc1nc(C)[nH]c1[N+](=O)[O-]	-0.0317
COc1ccc2[nH]c(=O)c(CNc3ccc(C)c(C)c3)cc2c1	-0.0534
COc1ccc(CNC(=O)C2CCCN(c3nccc(C)n3)C2)cc1 (centres undefined)	-0.338

SMILES	z-score
Cc1cccc(N2C(=O)C3C(c4ccccc4)OC4(C(=O)c5ccccc5C4=O)C3C2=O)c1 (centres undefined)	0.181
COC(=O)c1cc2ccccc2c(-c2c(O)ccc3ccccc23)c1O	0.0387
Cc1cc(C(=O)CSc2nc3ccc(Cl)cc3[nH]2)c(C)n1CC1CCCO1 (centres undefined)	-0.188
CC(=O)c1ccc(OCC(=O)c2ccc(-c3ccccc3)cc2)cc1	-0.162
COc1ccc2cc(C(=O)NCc3ccco3)c(=O)oc2c1	-0.0395
O=C(O)c1ccc(-n2c(-c3ccc(Br)cc3)n[nH]c2=S)cc1	0.033
CCSc1nnc(-c2ccccc2NC(C)=O)c(=O)[nH]1	0.739
CCOC(=O)c1sc(NC(=O)c2cccc(S(=O)(=O)N(CC)CC)c2)cc1C	-0.214
O=C(COC(=O)C1=COCCO1)Nc1ccc2c(c1)OCO2	-0.363
Cc1ccc(SCC(=O)Nc2cccnc2)cc1	-0.145
CC1(C)CC(=O)C(CCC(=O)c2ccccc2)C(C)(C)N1 (centres undefined)	0.26
Fc1ccc(-c2cc3nc4c(c(N5CCOCC5)n3n2)CCCC4)cc1	-0.0496
CCC(C)NC(=O)c1c(F)c(F)c(F)c(F)c1F (centres undefined)	-0.172
O=C(CNS(=O)(=O)c1ccccc1)OCC(=O)c1cccc([N+](=O)[O-])c1	-0.0665
Cc1oc(-c2ccccc2)nc1CS(=O)CC(=O)N1CCc2ccccc2C1 (centres undefined)	-0.164
CCCCNC(=S)N(Cc1ccco1)Cc1cc2cc3c(cc2[nH]c1=O)OCCO3	-0.301
CCn1c(SCC(=O)N/N=C/C=C\c2ccccc2[N+](=O)[O-])nnc1-c1ccccc1	-0.239
CCc1ccc(/C=C2\SC(=S)N(CCCC(=O)Nc3nccs3)C2=O)cc1	0.0464
Cc1nc2ccccc2n1CC(=O)NCc1ccccc1	0.413
CCC(C)c1ccc(-c2cc(C(=O)OCC(=O)Nc3cc(C)on3)c3ccccc3n2)cc1 (centres undefined)	0.436
CC(C)=CC(=O)Nc1ccc(Br)cc1	-0.047
COc1ccc(S(N)(=O)=O)cc1C(=O)NCC1(N2CCCCC2)CCCCC1	-0.667
O=C(O)C1CCN(C(=O)c2ccc(Cl)cc2)CC1	0.000989
